Assay results: PubChem BioAssay AID1346428 (National Center for Advancing Translational Sciences (NCATS), 2018)
Several values for one entry are separate records, joined by “and”; a condition that tells them apart may be missing. Identical values can stand only once. Screen size: about 48,000 compounds; about 1,200 (2.5%) were called active. Roughly 2% stayed inconclusive and do not appear here.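 The calls were made as follows: active = activation of at least 60% and not above a set upper limit (about 1 call in 100 departs from these limits); inconclusive = activation of 40% to 60%, or above that upper limit; inactive = activation under 40%.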 This is one part of the list.

biological target: Probable G-protein coupled receptor 32 (Homo sapiens) (UniProt O75388); assay: qHTS for Agonists of Human Resolvin D1 Receptor DRV1; conditions: CHO-K1 GPR32 beta-arrestin PathHunter luminescence, 90 min; at 76.9 µM; stronger effect = higher value; zero percent set by DMSO-only wells; also: 0% is about no effect
How it was run: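 Engineered CHO-K1 line co-expressing GPR32-ProLink and EA-beta-arrestin. Compound treatment lasted 90 min at 37 °C. Luminescence was recorded after 1 h with substrate at ambient temperature, relative to DMSO basal wells.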

UniProt O75388, sequence (O75388 whole entry, looked up): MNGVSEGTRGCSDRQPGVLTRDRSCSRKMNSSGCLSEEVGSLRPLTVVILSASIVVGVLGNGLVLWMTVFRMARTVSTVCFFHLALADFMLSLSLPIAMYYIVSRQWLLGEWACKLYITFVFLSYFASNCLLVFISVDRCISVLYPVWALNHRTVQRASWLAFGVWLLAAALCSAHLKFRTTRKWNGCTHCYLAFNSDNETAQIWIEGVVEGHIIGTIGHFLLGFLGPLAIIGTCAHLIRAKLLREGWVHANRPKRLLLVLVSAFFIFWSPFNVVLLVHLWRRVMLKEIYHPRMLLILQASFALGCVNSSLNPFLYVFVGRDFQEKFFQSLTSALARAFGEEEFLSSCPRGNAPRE

Question: With `O=C(NCCc1ccc(Cl)cc1)c1cc(-c2ccc(Cl)cc2)n[nH]1` as the compound, how does the activation read?
Answer: inactive: 0.979%

Question: `Cc1cccc(-c2nc(Cn3c(SCc4cc(C)ccc4C)nc4ccncc43)c(C)o2)c1` was tested. Which activation did it give?
Answer: inactive: 13.5%

Question: Which activation does the source give for `O=C(NCc1ccccc1Cl)C1CCC(CNS(=O)(=O)c2ccc(Br)s2)CC1` (centres undefined) here?
Answer: active: 98.2%

Question: How did the activation turn out when `CCc1ccc(NC(=O)CSc2nc3ccsc3c(=O)n2C(C)CC)cc1` (centres undefined) was run?
Answer: inactive: -22.1%

Question: With `Cc1ccc(N(Cc2cccs2)C(=O)COc2ccccc2[N+](=O)[O-])cc1` as the compound, how does the activation read?
Answer: inactive: -21.3%

Question: With `O=C(c1ccco1)n1nc(-c2ccccc2)nc1NCc1ccccc1Cl` as the compound, how does the activation read?
Answer: inactive: -15.3%

Question: With `CC(=O)Nc1ccc(S(=O)(=O)NCCc2csc3nc(-c4cccc(C)c4)nn23)cc1` as the compound, how does the activation read?
Answer: inactive: 15.8%

Question: How did the activation turn out when `COc1ccc(CCNC(=O)c2nn(C)c3c2CSc2ccccc2-3)cc1OC` was run?
Answer: inactive: -11.4%

Question: `O=C(NCc1ccccc1)C(=O)NCC(c1cccnc1)N1CCN(c2ccccc2)CC1` (centres undefined) was tested. Which activation did it give?
Answer: inactive: -13.6%

Question: With `CNS(=O)(=O)CCc1ccc2[nH]cc(C3CCN(C)CC3)c2c1` as the compound, how does the activation read?
Answer: inactive: 3.88%

Question: For `Cc1ccc(-c2nn3c(-c4ccc(C)cc4)nnc3c3ccccc23)cc1`, which activation is on record?
Answer: inactive: -2.78%

Question: For `O=C(CCCn1c2ccccc2c(=O)c2ccccc21)Nc1ccc(F)cc1Cl`, which activation is on record?
Answer: inactive: 22.6%

Question: How did the activation turn out when `COc1cc(CN(C(=O)c2oc3ccccc3c2C)C2CCS(=O)(=O)C2)cc(OC)c1OC` (centres undefined) was run?
Answer: inactive: -10%

Question: With `COc1ccccc1-n1c(SCC(=O)Nc2ccc(C)cc2)nc(O)cc1=O` as the compound, how does the activation read?
Answer: inactive: -4.99%

Question: With `COc1ccccc1CNC(=O)CCC1N=C2c3ccccc3N=C(SCC(=O)NCCc3ccc(OC)c(OC)c3)N2C1=O` (centres undefined) as the compound, how does the activation read?
Answer: inactive: -20.9%

Question: For `Cc1ccc(-c2nc(S(=O)(=O)c3ccc(C)cc3)c(SCC(=O)NC3CCCCC3)o2)cc1`, which activation is on record?
Answer: inactive: -11.3%

Question: Which activation does the source give for `COc1cccc(NC(=O)c2cc3c(=O)n(Cc4cccnc4)ccc3nc2C)c1` here?
Answer: inactive: -5.77%

Question: How did the activation turn out when `COc1ccc(-c2noc(-c3ccc(NC(C)c4ccccc4)c([N+](=O)[O-])c3)n2)cc1OC` (centres undefined) was run?
Answer: inactive: 15.4%

Question: With `CCc1ccc(-c2cc(C)no2)cc1S(=O)(=O)Nc1ccc(Cl)cc1` as the compound, how does the activation read?
Answer: inactive: -3.14%

Question: Which activation does the source give for `COc1cc(NS(=O)(=O)c2ccc3oc(=O)c4ncn(C)c4c3c2)cc(OC)c1` here?
Answer: inactive: 0.678%

Question: Which activation does the source give for `CCN1CCC(N(Cc2ccc3c(c2)OCO3)C(=O)Nc2ccccc2OC)CC1` here?
Answer: inactive: -8.9%

Question: How did the activation turn out when `CCOC(=O)c1c(C)[nH]c(CCC(=O)NCc2ccccc2C)c1C` was run?
Answer: inactive: -1.66%

Question: `CN(C)c1ccc(NC(=O)CSC2=Nc3ccccc3C3=NC(CC(=O)NCc4ccccc4)C(=O)N23)cc1` (centres undefined) was tested. Which activation did it give?
Answer: inactive: -4.2%

Question: With `CCOc1ccccc1CN(CCc1ccc2c(c1)OCO2)Cc1cccc(OC)c1OC` as the compound, how does the activation read?
Answer: inactive: 35.3%

Question: For `CC1CN(C(=O)N2CCC(C(=O)NC3CCCCCC3)CC2)c2ccccc2O1` (centres undefined), which activation is on record?
Answer: inactive: -2.08%

Question: For `COc1cc(NC(=O)C(CCS(C)(=O)=O)N2Cc3ccccc3C2=O)cc(OC)c1OC` (centres undefined), which activation is on record?
Answer: inactive: -1.13%

Question: Which activation does the source give for `CC1=C(C(=O)NCc2ccc(Cl)cc2)C2(CCCCCC2)OC1=O` here?
Answer: inactive: -25.2%

Question: Which activation does the source give for `COc1cccc(CSc2nc3n(n2)C(c2cccnc2)C(C(=O)Nc2ccccc2C)=C(C)N3)c1` (centres undefined) here?
Answer: inactive: 1.83%

Question: How did the activation turn out when `NCCCCN=C(N)N` was run?
Answer: inactive: 1.82%

Question: For `Cc1ccc(N2CC(NC(=O)CCc3ccccc3)CC2=O)cc1` (centres undefined), which activation is on record?
Answer: inactive: -4.3%

Question: With `COc1ccccc1C(=O)NC(=O)Nc1ccc(-n2nc(C(F)(F)F)cc2C(F)(F)F)cc1` as the compound, how does the activation read?
Answer: inactive: -3.89%

Question: `COc1ccccc1C(=O)Nc1ccc(C(=O)OCc2cc(=O)n3ccsc3n2)cc1` was tested. Which activation did it give?
Answer: inactive: -5.74%

Question: Which activation does the source give for `CCOC(=O)c1sc(NC(=O)c2cc3nc(-c4ccc(Br)cc4)cc(C(F)(F)F)n3n2)c(C(=O)OCC)c1C` here?
Answer: inactive: -9.77%

Question: For `Cc1nc2cc(C(=O)O)ccc2n1-c1ccc(C(C)C)cc1`, which activation is on record?
Answer: inactive: 20.6%

Question: How did the activation turn out when `Cc1cccc(N2CCN(C(=O)Cn3c(=O)c4cccn4c4ccc(F)cc43)CC2)c1C` was run?
Answer: inactive: -16.5%

Question: With `CCOC(=O)CCn1nc(C)c2c(C)n(-c3ccccc3)nc2c1=O` as the compound, how does the activation read?
Answer: inactive: -9.95%

Question: `CC(C)CC(=O)Nc1ccc(Cl)c(-c2nc3ccccc3[nH]2)c1` was tested. Which activation did it give?
Answer: inactive: 31.8%

Question: Which activation does the source give for `Cc1nc2nc(SCC(=O)NCc3ccccc3)nn2c(C)c1Cc1ccccc1` here?
Answer: inactive: -13.6%

Question: How did the activation turn out when `Cc1ccc(NC(=O)c2ccc(Br)cc2)c(C(=O)c2ccccc2)c1` was run?
Answer: inactive: -2.81%

Question: With `N#Cc1ccc(NS(=O)(=O)c2ccc(-c3cnc(C4CC4)o3)cc2)cc1` as the compound, how does the activation read?
Answer: inactive: 7.98%

Question: Which activation does the source give for `O=C(O)[C@H]1NCCC[C@H]1C(=O)O` here?
Answer: inactive: -5.26%

Question: `COc1ccc(OC)c(CNC(=O)CN2C(=O)CCn3nc(-c4cn(C)c5ccccc45)cc32)c1` was tested. Which activation did it give?
Answer: inactive: -9.2%

Question: For `CC(=O)Oc1ccccc1C(=O)O`, which activation is on record?
Answer: inactive: -3.61% and inactive: 3.12%

Question: How did the activation turn out when `CCOC(=O)c1ccccc1NC(=O)N(Cc1ccco1)C1CCN(C(C)=O)CC1` was run?
Answer: inactive: 7.64%

Question: With `CNC(=O)c1ccc(Nc2nnc(-c3ccc(C)c(S(=O)(=O)N4CCOCC4)c3)c3ccccc23)cc1` as the compound, how does the activation read?
Answer: inactive: 25%

Question: Which activation does the source give for `CCOc1nc(NC(=O)NS(=O)(=O)Oc2ccccc2Cl)nc(-c2ccccc2)n1` here?
Answer: inactive: 23.6%

Question: Which activation does the source give for `COc1cc2nc(NCC(C)c3ccccc3)n3nc(-c4ccccc4)nc3c2cc1OC` (centres undefined) here?
Answer: inactive: 4.41%

Question: How did the activation turn out when `Cc1ccc(C)n1-c1nnc(N2CCCC(C(=O)NCc3ccccc3)C2)s1` (centres undefined) was run?
Answer: inactive: -26.2%

Question: How did the activation turn out when `Cc1ccc(NC(=O)CCc2c(C)nc3nc(C)nn3c2C)c(Cl)c1` was run?
Answer: inactive: 24.2%

Question: For `CCc1cccc(NC(=O)CN2C=NS(=O)(=O)c3ccccc32)c1`, which activation is on record?
Answer: inactive: 8.07%

Question: For `COc1ccccc1-c1cc(C(F)(F)F)nc(S(=O)(=O)CCCC(=O)Nc2ccc(F)c(Cl)c2)n1`, which activation is on record?
Answer: inactive: -2.52%

Question: With `COc1ccc(C(=O)N2CCC(c3c[nH]c4ccccc34)(c3c[nH]c4ccccc34)CC2)cc1` as the compound, how does the activation read?
Answer: inactive: -0.997%

Question: For `COc1ccccc1CNC(=O)c1oc2c(c1C)-c1nn(Cc3ccc(Cl)cc3)cc1CC2`, which activation is on record?
Answer: inactive: -9.08%

Question: How did the activation turn out when `CN(C)c1ccc(CNC(=O)C2CCN(S(=O)(=O)c3cn(C)cn3)CC2)cc1` was run?
Answer: inactive: -9.22%
